Assay results taken from the supplement of paper PMC3334620.
In all, about 33,000 sequences were measured (“E-score (-0.5 to 0.5)”: median about -0.041, highest 2% from about 0.37 on). The list shows a part of the results.

Biological target: T1, Ecm22 (UniProt Q05958)
T1 sequence: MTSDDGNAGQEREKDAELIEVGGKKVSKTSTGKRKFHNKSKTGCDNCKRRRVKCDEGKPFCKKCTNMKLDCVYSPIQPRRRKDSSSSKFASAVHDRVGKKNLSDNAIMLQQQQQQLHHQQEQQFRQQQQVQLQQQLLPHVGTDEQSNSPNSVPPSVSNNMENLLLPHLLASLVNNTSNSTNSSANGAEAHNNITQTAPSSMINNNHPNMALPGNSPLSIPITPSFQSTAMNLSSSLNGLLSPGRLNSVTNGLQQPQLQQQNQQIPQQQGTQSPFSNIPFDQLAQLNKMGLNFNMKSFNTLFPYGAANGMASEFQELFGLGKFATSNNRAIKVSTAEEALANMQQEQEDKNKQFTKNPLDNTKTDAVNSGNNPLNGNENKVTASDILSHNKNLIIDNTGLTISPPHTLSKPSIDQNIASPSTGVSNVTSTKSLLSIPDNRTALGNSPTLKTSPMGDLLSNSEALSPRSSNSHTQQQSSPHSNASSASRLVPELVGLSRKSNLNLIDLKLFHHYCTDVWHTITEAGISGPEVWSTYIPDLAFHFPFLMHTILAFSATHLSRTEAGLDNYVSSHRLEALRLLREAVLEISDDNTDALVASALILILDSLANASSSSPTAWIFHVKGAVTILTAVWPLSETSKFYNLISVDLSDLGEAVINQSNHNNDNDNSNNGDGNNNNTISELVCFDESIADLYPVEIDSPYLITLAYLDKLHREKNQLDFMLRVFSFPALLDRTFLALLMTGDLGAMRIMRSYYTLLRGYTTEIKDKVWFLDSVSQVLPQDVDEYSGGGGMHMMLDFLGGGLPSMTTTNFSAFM
Test: PBM E-score (8-mer binding enrichment) (E-score (-0.5 to 0.5)); higher = stronger / more preferred TF binding; most listed sequences are background and not binding sites
Conditions: protein concentration: 200 nM; construct: GST-full length
Method in brief: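 GST-tagged yeast TFs (full-length or DNA-binding domain) were made by PURExpress in vitro transcription/translation and applied at about 100-200 nM to universal all-10-mer Agilent arrays. The arrays were made double-stranded by primer extension, on fresh or once-stripped slides. Bound protein was detected with fluorescent anti-GST, and scans were normalised with masliner. Each ungapped eight-base word, pooled with its reverse complement, received an E-score (modified Wilcoxon-Mann-Whitney statistic) from the Universal PBM Analysis Suite.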

Sequence	PBM E-score
AAACGCGT	0.227
GCGGTTCC	0.0954
GATGTCGA	0.0298
CTAAGCCC	-0.327
AGTTTGCG	-0.0229
AATATTTC	0.0902
TAGGAGCA	-0.249
AAGAATGG	-0.0869
CTGCCCTA	-0.296
CGATCGTA	0.437
AACTGGCG	0.0384
AAGGTAAT	-0.00177
CTACCTAG	-0.286
CGAGGGAC	0.125
CTATGAGC	-0.162
CATAGTAG	0.195
AAGTCCCC	-0.134
GAGGGTGA	-0.089
AACCCGGG	-0.1
AAGTACGG	0.281
TAGCTAGA	-0.0745
GAACAACC	0.0822
CACGACTC	0.0577
AATGCCGC	0.109
CGGCACCG	0.106

Sequence	PBM E-score
ATTGTAAG	-0.0704
CAATGCTC	-0.00915
CAAACTTG	-0.0918
GCAGTCGC	0.0968
ATAGGGGA	-0.227
GGCCGTGA	-0.165
ATGAGGCA	-0.147
GACGTTGC	0.168
ATATCATA	0.243
ATATGCGC	0.0551
AGGTACCC	-0.249
CATCCAAC	-0.0746
CTTATAGC	0.0718
CACCACCG	-0.112
AGACTGCC	0.0643
ACTAAGCT	-0.00994
AGAAGCGG	-0.165
AGCCAGTC	-0.0789
CCGTGGGC	-0.0945
AGTTTGAG	-0.116
AGTATGAA	0.0349
CAGAGGGC	-0.268
ACTACAGG	-0.0997
CTACCAGC	-0.0908
ATGACGAA	0.098

Sequence	PBM E-score
ACTCGGAC	0.126
AGGCAGCC	-0.176
AAAACGGG	0.278
AATTGGGG	-0.0806
GAAGCTCA	-0.182
CGCCTCCC	0.0189
AGAATGAA	0.0485
AGACGGTA	-0.121
TCGGCTAA	0.184
TAGTTGGA	-0.0836
GCTCAGAC	-0.112
AACCCGTT	0.201
CACCCAGC	-0.154
ACTCGAGT	0.12
ACAACGGT	0.0964
ACACGGTA	0.108
TAGCTGCA	-0.146
ATATGGGC	-0.113
AAACGATG	0.439
CCACCGAC	-0.182
AAAGAGAT	-0.0862
TACAGATA	0.0642
AATCCTGC	-0.191
ACGCGCAC	0.0967
GAAGAGCA	-0.289

Sequence	PBM E-score
CCACGCAA	-0.0714
CAAGAGCA	-0.302
ATCCACCA	-0.18
CTTGCTTA	-0.208
ATATGCCA	0.04
AACCCGGT	-0.0666
TACACCGA	0.0435
GAAAAGGC	-0.027
GTGCCTGA	-0.193
AACACATA	0.0837
TCAACAAA	0.0901
CGAAAAAG	0.229
ACGCCCGA	-0.0498
ACTTCCCA	-0.0598
CCTGTAAG	-0.191
GCATCAAC	0.0415
AAAATTTA	0.0902
GTGGAAGA	-0.134
CGACCGGA	0.235
ACCGGCGG	-0.0922
CCTTTAAG	-0.259
TATTGAGA	0.0234
ACAGAGAA	-0.114
CGGCCGAC	0.0395
CTAGGTGC	-0.0893

Sequence	PBM E-score
GTAAGTCA	0.189
ACTGGCGG	-0.0132
ACCGAGTG	0.159
TACATCCA	0.0211
CGCGGTAC	0.319
TCATAAGA	0.0597
CCTGGGCC	-0.232
AGGCTGCG	-0.132
TAATTTCA	0.127
CCAGTAAA	-0.0419
TCATCCCA	-0.00546
AGTATTCA	-0.0316
GACTCTAA	-0.21
CCGGATAG	0.0828
ACCAAAAG	-0.178
GGGGCATA	-0.152
AATGCAGC	-0.147
GTAGGCAC	-0.144
CTACACAG	-0.186
CAAGTCGG	0.0293
ACTTTCGG	-0.184
AACGATTC	0.377
AATTTGGA	-0.116
ACCCTTCG	0.126
ACTTCAAA	-0.0226

Sequence	PBM E-score
CAAAGTAA	0.0174
ACCAATGC	0.0524
CCATCCGG	-0.161
CCGGAAAA	0.147
AGAATTGG	-0.0535
CGATATAA	0.138
GCAGTCAC	-0.0863
ACCACCTG	-0.0881
GTGACTCA	-0.0904
ACGCGCAA	0.172
CAAACCGC	-0.181
ACAGATTG	-0.157
GATAAAGA	-0.019
AATTGTTG	-0.172
CACTCATA	0.104
CGATGCCA	0.0118
AAGGGCTC	-0.16
AAAGAAGG	-0.146
AGCATTTG	-0.206
ATAATGTC	0.0705
AGTACAGG	-0.0421
GCGAAAGC	0.0552
CGGCTGGC	0.0664
CCGTAACA	0.2
ATGCACAT	0.0594

Sequence	PBM E-score
ACTTCCAA	-0.156
ACACGACG	0.251
ATTTGTCA	0.147
ATGTAAGA	0.0701
AACTATGT	-0.209
ACTAGAAT	0.0764
AATCAAGT	-0.084
ACCAGGGA	-0.174
CCGGGGAG	-0.164
CGTACGAA	0.448
ATCCCCTC	-0.0572
AACTGCCT	-0.0616
CTTGTTAA	-0.171
AAACTGTC	-0.0481
CGGGGTGC	-0.0331
CCTGCTTA	0.0143
GAAGAAGA	-0.0416
CTGCTGTA	0.132
GAGATGTA	0.0854
AAACTGCT	-0.182
AAGCTCCG	-0.12
AGCGAAGA	0.183
